# Test results: PubChem BioAssay AID761 (NMMLSC, 2007)
# Screen size: about 190,000 compounds; about 400 (0.21%) were called active. The inconclusive results got no clear call from the source; some entries with a clear call stand among them for comparison.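 Rule for the calls: active = percent activity GTP binding at least 20 points away from the 100% baseline, either down as inhibitor or up as activator; inconclusive = compound flagged as likely green fluorescent from well-wide comparison; inactive = the rest.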
# Biological target: Cell division control protein 42 homolog (Homo sapiens) (UniProt P60953)
# Assay: wildtype Cdc42 fluorescent GTP binding changes, either direction – biochemical, multiplex bead flow cytometry, Bodipy-GTP, primary screen (AID 761);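 note: median bead fluorescence of bound Bodipy-FL-GTP at 100 nM; 0% = excess unlabeled GTP control and 100% = no compound control; below 100% means less GTP binding so inhibitor and above means activator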
# Settings: GST-Cdc42 beads, at 10 µM, actives lie on both sides
# UniProt P60953, sequence (P60953 whole entry, looked up): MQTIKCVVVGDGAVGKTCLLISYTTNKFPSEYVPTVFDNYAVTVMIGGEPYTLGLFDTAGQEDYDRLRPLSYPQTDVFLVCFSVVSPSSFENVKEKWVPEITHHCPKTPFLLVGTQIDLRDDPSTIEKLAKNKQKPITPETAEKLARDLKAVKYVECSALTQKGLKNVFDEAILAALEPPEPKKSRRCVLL
row,SMILES,percent activity (GTP binding)
1,COc1ccc(CCn2c(N)c(C#N)c3nc4ccccc4nc32)cc1OC,inconclusive: 88%
2,Cc1cc(C#N)c(C)n1-c1cc(C(F)(F)F)ccc1N1CCOCC1,inconclusive: 107%
3,NC1=NC(=O)C2(COC(c3cccnc3)OC2)S1 (stereo not drawn),inconclusive: 94%
4,COc1ccc(S(=O)(=O)N2CCC(C(=O)NCC3CCCO3)CC2)cc1 (stereo not drawn),inconclusive: 103%
5,COc1ccc(C2C(C(C)=O)=C(O)C(=O)N2c2nccs2)cc1 (stereo not drawn),inconclusive: 91%
6,C/C(N)=C(/C#N)C(=O)CSc1nnnn1-c1ccc(C)cc1,inconclusive: 105%
7,COc1cccc(CNCC(O)(c2ccc(Cl)cc2)c2ccc(Cl)cc2)c1,inconclusive: 108%
8,COc1ccc(OCCSc2nc3nc(C)cc(C)n3n2)cc1,inconclusive: 75%
9,COc1ccc(Cn2c(-c3ccc(C)cc3)nc3c(c(=O)c4ccccc4n3C)c2=O)cc1,inactive: 94%
10,COc1ccc(CC(=O)NCc2cccs2)cc1,inconclusive: 105%
11,O=C(/C=C/c1ccccc1)Nc1ccc(C(=O)N2CCCCC2)cc1,inactive: 95%
12,Cc1ccc(C(=O)N2C(CC(=O)Nc3ccc(Cl)cc3)C(=O)NC3CCCCC32)cc1 (stereo not drawn),inactive: 101%
13,O=C(O)c1cc(-c2ccc(/C=C3\NC(=O)N(c4ccc(Cl)cc4)C3=O)o2)ccc1Cl,active: 74%
14,CCc1ccc(OS(=O)(=O)c2cn(C)c(=O)n(C)c2=O)cc1,inactive: 95%
15,Cc1cc(C)cc(Nc2nc3c([nH]2)c(=O)n(C)c(=O)n3C)c1,inconclusive: 97%
16,COc1ccc(/C=N\NC(=O)c2sc(N)nc2C)cc1OC,inconclusive: 86%
17,CCc1ccc(NC(=S)N2CCN(c3cccc(OC)c3)CC2)cc1,inactive: 96%
18,COc1ccc(C(=O)CCc2nc3ccccc3s2)cc1,inactive: 98%
19,Cc1sc(NC(=O)c2ccco2)c(C(c2ccncc2)N2CCOCC2)c1C (stereo not drawn),inconclusive: 106%
20,Nc1nnc(SCc2nnc(-c3ccccc3)o2)s1,inactive: 98%
21,NS(=O)(=O)c1cccc(NC(=O)Cn2cnc3ccccc3c2=O)c1,inactive: 105%
22,COc1ccc(Cc2c[nH]c(=O)[nH]c2=O)cc1,inconclusive: 96%
23,Cc1ccc(-c2nnc(-c3ccccc3S(=O)(=O)Cc3ccc(Cl)cc3)o2)cc1,inconclusive: 109%
24,CC(C)CCNC(=O)COC(=O)c1cc(Br)c(Br)s1,inconclusive: 92%

row,SMILES,percent activity (GTP binding)
1,CCC(C)N1CNc2c(c(=O)[nH]c(=S)n2-c2cccc(C)c2)C1 (stereo not drawn),inactive: 96%
2,Cc1c(C(=O)N/N=C/c2ccncc2)no[n+]1[O-],inactive: 99%
3,COC(=O)c1cn(C(=O)/C=C/c2ccc(OC)c(OC)c2)c2ccccc12,inconclusive: 88%
4,CNS(=O)(=O)c1ccc(NC(=O)C2CC(=O)N(c3ccc(Cl)cc3)C2)cc1 (stereo not drawn),inconclusive: 91%
5,COc1cccc(N=Nc2c(N)[nH]n3c(=O)cc(-c4ccccc4)nc23)c1,inactive: 92%
6,O=C(CCc1nnc(CCCc2ccccc2)o1)NC(C1CC1)C1CC1,inconclusive: 95%
7,COc1ccc(-c2nn(-c3ccccc3)cc2/C=C/C(=O)N2CCN(c3ccccn3)CC2)cc1,inactive: 95%
8,O=C(Cc1ccccc1)NNC(=O)C1CCCC1,inconclusive: 93%
9,CN(C)CCCNCCCCNC(=O)/C=N/O,inconclusive: 104%
10,O=C(Cn1cnc2c(nnn2Cc2ccc(F)cc2)c1=O)OCc1ccccc1,inconclusive: 104%
11,CCC1SC2=NC(C)=C(C(=O)OC)C(c3ccc(C)cc3)N2C1=O (stereo not drawn),inconclusive: 92%
12,Cc1ccc(S(=O)(=O)Nc2cccnc2)cc1,inconclusive: 102%
13,O=C(CSc1nc2ccccc2c(=O)n1NC(=O)c1ccccc1)c1ccccc1,inconclusive: 98%
14,CCOc1ccccc1C1C(C#N)=C(N)Oc2n[nH]c(CC)c21 (stereo not drawn),inconclusive: 111%
15,Cc1cc(Cl)ccc1NC(=S)NCCN1CCOCC1,inconclusive: 102%
16,CCOC(=O)CSc1n[nH]c(NC(=O)c2cccc(C(F)(F)F)c2)n1,inactive: 101%
17,COc1ccc(CCNC(=O)[C@@H](NC(=O)c2ccccc2F)C(C)C)cc1OC,inactive: 95%
18,Cc1ccc(C(=O)N/N=C(\CC(C)C)c2ccccc2)cc1,inconclusive: 116%
19,COc1cc(C(=O)Nc2ccc3c(c2)CCN3C(C)=O)cc(OC)c1OC,inconclusive: 157%
20,O=C(O)CCC(=O)Nc1ccc(/C=C/C(=O)C2CC2)cc1,inactive: 99%
21,Cc1cc(Nc2n[nH]c(N)c2C#N)ccc1F,inactive: 94%
22,c1ccc(C2=Nn3c(nnc3-c3ccco3)SC2)cc1,inconclusive: 77%
23,CCc1ccc(C(=O)/C=C/Nc2ccc(S(=O)(=O)Nc3onc(C)c3C)cc2)cc1,inconclusive: 94%
24,CCOc1ccccc1N(CC(=O)N1CCCCCC1)S(C)(=O)=O,inconclusive: 106%

row,SMILES,percent activity (GTP binding)
1,COc1cccc(C(=O)Nc2cccc3c2ccc2cccn23)c1,inconclusive: 91%
2,Brc1c(OCCOCCn2cncn2)ccc2ccccc12,inconclusive: 99%
3,COc1ccc(-c2nc3ncnn3cc2C)cc1F,inactive: 96%
4,COc1ccc2c(c1)CCCC21SC(NC(C)=O)=NN1C(C)=O (stereo not drawn),inactive: 92%
5,COc1ccc(-c2nnc(SCC(=O)Nc3nncs3)o2)cc1,inconclusive: 91%
6,CCOC(=O)N1CCN(CC(=O)Nc2ccc(C)c(Br)c2)CC1,inactive: 98%
7,CN1/C(=C/C2CC(=O)N(c3ccc([N+](=O)[O-])cc3)C2=O)C(C)(C)c2ccccc21 (stereo not drawn),inconclusive: 89%
8,O=C(Nc1ccon1)c1ccc(S(=O)(=O)N2CCOCC2)cc1,inactive: 94%
9,COCCNC(=O)Cn1cnc2ccc(S(=O)(=O)N3CCC(C)CC3)cc2c1=O,inconclusive: 106%
10,CCC(/C=N/NC(=O)CCCCC(=O)N/N=C/C(CC)CC)CC,inactive: 97%
11,c1ccc(CCC2CCCCN2Cc2cn[nH]c2-c2cc3ccccc3o2)nc1 (stereo not drawn),inactive: 97%
12,Cc1cccc(-n2c(Cc3ccccc3)n[nH]c2=S)c1,inconclusive: 92%
13,CS(=O)(=O)Nc1ccc(Br)cc1C(=O)c1ccccc1,active: 69%
14,O=C(CCl)N(Cc1cccc([N+](=O)[O-])c1)c1cccc(Cl)c1,inactive: 96%
15,Cc1ccc(OCCSc2ncnc3sc(C)c(C)c23)cc1C,inconclusive: 83%
16,COc1cc(NC(=O)c2cccs2)c(OC)cc1NC(=O)CCC(=O)Nc1cccc2ncccc12,active: 74%
17,O=C(/C=C/c1c(Cl)nc2ccccn12)N1CCCCC1,inconclusive: 155%
18,COc1cccc(NC(=O)c2ccc(C(=O)c3ccccc3)o2)c1,inactive: 93%
19,O=C(NC1CCN(C(=S)NCc2ccco2)CC1)c1ccc(F)cc1,inconclusive: 107%
20,COc1ccc(-c2cc(-c3ccccc3)c(C#N)c(=S)[nH]2)cc1,active: 79%
21,Cn1c(=O)c2c(nc(OCc3cccnc3)n2Cc2c(F)cccc2Cl)n(C)c1=O,inactive: 101%
22,O=C(Nc1ccc(Cl)cc1)c1csc(-c2ccncc2)n1,inconclusive: 86%
23,O=C(Nc1ccc(F)cc1)N1CCN(c2ccc3nnc(-c4ccc(F)cc4)n3n2)CC1,inconclusive: 94%
24,COc1ccc(-c2csc(NC(=O)c3ccccc3NS(=O)(=O)c3ccc(F)c(F)c3)n2)cc1,inconclusive: 83%

row,SMILES,percent activity (GTP binding)
1,CC(C)(C)c1ccc(/C=C2\SC(=O)N=C2N)cc1,inactive: 96%
2,COc1ccc(OC)c(C2CC(=O)Nc3n[nH]c(-c4ccccc4)c32)c1 (stereo not drawn),inconclusive: 94%
3,O=C(O)CC/C(=N/Nc1ncc(C(F)(F)F)cc1Cl)C(=O)O,inactive: 99%
4,CCCn1c(=N)n(CC(O)COc2cccc(C)c2)c2ccccc21 (stereo not drawn),inconclusive: 101%
5,COc1ccccc1N(CC(=O)NC(C)(C)C)S(=O)(=O)c1cccs1,inactive: 97%
6,COc1cc(/C=N/Nc2nc(C)nc3c2cnn3-c2ccccc2)ccc1O,active: 77%
7,COc1ccccc1C(=O)N=Nc1c(O)[nH]c2ccc([N+](=O)[O-])cc12,active: 51%
8,Cc1nnc2ccc(-c3cccc(NC(=O)c4ccco4)c3)nn12,active: 64%
9,CCOC(=O)N1CCC(N2Cc3cccc(C(=O)Nc4ccc(F)cc4)c3C2=O)CC1,inconclusive: 91%
10,Cc1nn(-c2ccc(Cl)cc2Cl)c(C)c1C(=O)O,inconclusive: 94%
11,O=C(COC(=O)c1ccc(O)cc1)Nc1ccc(Cl)cc1,inactive: 97%
12,CC(C)NC(=O)COC(=O)c1ccccc1C(=O)c1ccccc1,inconclusive: 93%
13,COCC(=O)N1CCN(c2nc3ccccc3o2)CC1,inactive: 98%
14,COc1ccc(S(=O)(=O)Nc2cc3c(cc2C(C)=O)OCO3)cc1,inactive: 94%
15,O=C(OCC1O[C@@H](OC(=O)c2cc(O)c(O)c(O)c2)[C@@H](OC(=O)c2cc(O)c(O)c(O)c2)[C@@H](OC(=O)c2cc(O)c(O)c(O)c2)[C@@H]1OC(=O)c1cc(O)c(O)c(O)c1)c1cc(O)c(O)c(O)c1 (stereo partly drawn),active: 79%
16,COc1ccc(OC)c(CN2CCN(Cc3cccc4ccccc34)CC2)c1,inactive: 93%
17,Cc1ccc(S(=O)(=O)N(C)CC(=O)N2CCN(C(=O)c3ccco3)CC2)cc1,inconclusive: 105%
18,CCn1c(C)nc2cc(C(=O)NNC(=O)c3ccc(Cl)nc3)ccc21,inconclusive: 95%
19,COc1cc(/C=C2\SC(=Nc3ccc(O)cc3)NC2=O)cc(OC)c1O,active: 79%
20,CCn1nc(C(=O)OCC(=O)c2cc(C)n(Cc3cccs3)c2C)c2ccccc2c1=O,active: 77%
21,CCOc1cccc(CNCCSc2nnnn2C)c1,inactive: 97%
